Reference: EPA's CvTdb concentration-time database
The source gives many values for each of these; only a part stands here.

Assays:
Rat [1] = assay: concentration in plasma after dosing; settings: 10 min; dosed: 2-Methyltetrahydrofuran; 400 mg/kg; oral; Female; Harlan Sprague Dawley
Rat [2] = assay: concentration in plasma after dosing; settings: 1.5 h; dosed: 2-Methyltetrahydrofuran; 10 mg/kg; oral; Female; F344
Rat [3] = assay: concentration in plasma after dosing; settings: 5 min; dosed: 2-Methyltetrahydrofuran; 400 mg/kg; oral; Male; F344
Rat [4] = assay: concentration in plasma after dosing; settings: 1.5 h; dosed: 2-Methyltetrahydrofuran; 10 mg/kg; iv; Male; F344
Rat [5] = assay: concentration in plasma after dosing; settings: 0.5 h; dosed: 2-Methyltetrahydrofuran; 10 mg/kg; oral; Male; F344
Rat [6] = assay: concentration in plasma after dosing; settings: 8 min; dosed: 2-Methyltetrahydrofuran; 10 mg/kg; oral; Female; F344
Rat [7] = assay: concentration in plasma after dosing; settings: 0.25 h; dosed: 2-Methyltetrahydrofuran; 10 mg/kg; oral; Male; F344
Rat [8] = assay: concentration in brain after dosing; settings: 1.5 h; dosed: 2-Methyltetrahydrofuran; 30 mg/kg; oral; Female; F344
Rat [9] = assay: concentration in brain after dosing; settings: 0.25 h; dosed: 2-Methyltetrahydrofuran; 10 mg/kg; iv; Female; F344
Rat [10] = assay: concentration in brain after dosing; settings: 0.25 h; dosed: 2-Methyltetrahydrofuran; 10 mg/kg; iv; Male; F344
Rat [11] = assay: concentration in brain after dosing; settings: 8 min; dosed: 2-Methyltetrahydrofuran; 30 mg/kg; oral; Male; F344
Rat [12] = assay: concentration in brain after dosing; settings: 1 h; dosed: 2-Methyltetrahydrofuran; 30 mg/kg; oral; Male; F344
Rat [13] = assay: concentration in brain after dosing; settings: 8 h; dosed: 2-Methyltetrahydrofuran; 100 mg/kg; oral; Female; Harlan Sprague Dawley
Rat [14] = assay: concentration in plasma after dosing; settings: 0.5 h; dosed: 2-Methyltetrahydrofuran; 30 mg/kg; oral; Male; F344
Rat [15] = assay: concentration in brain after dosing; settings: 2.5 h; dosed: 2-Methyltetrahydrofuran; 10 mg/kg; oral; Male; F344
Rat [16] = assay: concentration in brain after dosing; settings: 2 h; dosed: 2-Methyltetrahydrofuran; 10 mg/kg; iv; Male; F344
Rat [17] = assay: concentration in plasma after dosing; settings: 2 min; dosed: 2-Methyltetrahydrofuran; 10 mg/kg; iv; Male; F344
Rat [18] = assay: concentration in plasma after dosing; settings: 10 min; dosed: 2-Methyltetrahydrofuran; 10 mg/kg; iv; Male; F344
Rat [19] = assay: concentration in plasma after dosing; settings: 10 min; dosed: 2-Methyltetrahydrofuran; 10 mg/kg; iv; Female; F344
Rat [20] = assay: concentration in plasma after dosing; settings: dosed: Bromochloroacetic acid, 40 mg/kg, oral, Female, F344
Rat [21] = assay: concentration in plasma after dosing; settings: dosed: Bromochloroacetic acid, 40 mg/kg, oral, Female, F344; remark: listed apart in the source
Rat [22] = assay: concentration in plasma after dosing; settings: dosed: Bromochloroacetic acid, 100 mg/kg, oral, Female, F344
Rat [23] = assay: concentration in plasma after dosing; settings: 0.75 h; dosed: Bromochloroacetic acid; 100 mg/kg; oral; Female; F344
Rat [24] = assay: concentration in plasma after dosing; settings: 40 min; dosed: Bromochloroacetic acid; 10 mg/kg; iv; Male; F344
Rat [25] = assay: concentration in plasma after dosing; settings: dosed: Fluorotelomer alcohol 8+2, 48 mg/kg, oral, Male, Harlan Sprague Dawley
Rat [26] = assay: concentration in plasma after dosing; settings: dosed: Fluorotelomer alcohol 8+2, 48 mg/kg, oral, Male, Harlan Sprague Dawley; remark: listed apart in the source
Rat [27] = assay: concentration in plasma after dosing; settings: dosed: Fluorotelomer alcohol 8+2, 160 mg/kg, oral, Female, Harlan Sprague Dawley
Rat [28] = assay: concentration in plasma after dosing; settings: dosed: Formamide, 90 mg/kg, iv, Male, Harlan Sprague Dawley
Rat [29] = assay: concentration in plasma after dosing; settings: dosed: Formamide, 90 mg/kg, iv, Male, Harlan Sprague Dawley; remark: listed apart in the source
Rat [30] = assay: concentration in plasma after dosing; settings: dosed: Formamide, 90 mg/kg, iv, Male, Harlan Sprague Dawley; remark: listed apart in the source
Rat [31] = assay: concentration in plasma after dosing; settings: dosed: Formamide, 90 mg/kg, iv, Male, Harlan Sprague Dawley; remark: listed apart in the source
Rat [32] = assay: concentration in plasma after dosing; settings: 2 h; dosed: Pyridine; 10 mg/kg; oral; Male; Harlan Sprague Dawley
Rat [33] = assay: concentration in plasma after dosing; settings: dosed: Pyridine, 25 mg/kg, oral, Female, F344
Rat [34] = assay: concentration in plasma after dosing; settings: 10 min; dosed: Pyridine; 50 mg/kg; oral; Female; F344
Rat [35] = assay: concentration in plasma after dosing; settings: 2 h; dosed: Pyridine; 5 mg/kg; iv; Female; F344
Rat [36] = assay: concentration in plasma after dosing; settings: 2 min; dosed: Pyridine; 10 mg/kg; iv; Female; F344
Rat [37] = assay: concentration in plasma after dosing; settings: 4 h; dosed: Pyridine; 10 mg/kg; oral; Male; Harlan Sprague Dawley

CC1CCCO1 (stereo not drawn) [2-Methyltetrahydrofuran]
Settings	concentration in brain [µg/g]	concentration in plasma [ng/mL]
Rat [1]	–	226000
Rat [2]	–	234
Rat [3]	–	256000
Rat [4]	–	941
Rat [5]	–	4920
Rat [6]	–	3000
Rat [7]	–	5850
Rat [8]	3.42	–
Rat [9]	4.45	–
Rat [10]	5.66	–
Rat [11]	9.97	–
Rat [12]	6.79	–
Rat [13]	0.228	–
Rat [14]	–	15600
Rat [15]	0.0335	–
Rat [16]	0.199	–
Rat [17]	–	18800
Rat [18]	–	10400
Rat [19]	–	8840

O=C(O)C(Cl)Br (stereo not drawn) [Bromochloroacetic acid]
Settings	concentration in plasma [ng/mL]
Rat [20], 4 h	1080
Rat [20], 20 min	12300
Rat [21], 0.25 h	6000
Rat [21], 3 h	3400
Rat [22], 7 h	575
Rat [22], 20 min	37700

Settings	concentration in plasma [ng/mL]
Rat [23]	52600
Rat [24]	261

OCCC(F)(F)C(F)(F)C(F)(F)C(F)(F)C(F)(F)C(F)(F)C(F)(F)C(F)(F)F [Fluorotelomer alcohol 8+2]
Settings	concentration in plasma [ng/mL]
Rat [25], 1 h	639
Rat [25], 24 h	4.45
Rat [26], 0.75 h	187
Rat [26], 12 h	25.3
Rat [27], 3 h	1770
Rat [27], 5 min	40.4

NC=O [Formamide]
Settings	concentration in plasma [ng/mL]
Rat [28], 10 min	155000
Rat [28], 18 h	45500
Rat [29], 0.25 h	198000
Rat [29], 24 h	20500
Rat [30], 0.5 h	136000
Rat [30], 48 h	3800
Rat [31], 1 h	171000
Rat [31], 3 h	161000

c1ccncc1 [Pyridine]
Settings	concentration in plasma [ng/mL]
Rat [32]	1770
Rat [34]	41900
Rat [35]	2970
Rat [36]	6320
Rat [37]	384

Rat [33]
Settings	concentration in plasma [ng/mL]
0.5 h	14700
6 h	16300
